The text below walks through data of article PMC12820563, “FoxP3 forms a head-to-head dimer in vivo and stabilizes its multimerization on adjacent microsatellites”.

The list shows a part of the results.

For the assay, the target named is T1, MBP-FoxP1dN (Mus musculus, UniProt P58462 326-579).
T1 sequence: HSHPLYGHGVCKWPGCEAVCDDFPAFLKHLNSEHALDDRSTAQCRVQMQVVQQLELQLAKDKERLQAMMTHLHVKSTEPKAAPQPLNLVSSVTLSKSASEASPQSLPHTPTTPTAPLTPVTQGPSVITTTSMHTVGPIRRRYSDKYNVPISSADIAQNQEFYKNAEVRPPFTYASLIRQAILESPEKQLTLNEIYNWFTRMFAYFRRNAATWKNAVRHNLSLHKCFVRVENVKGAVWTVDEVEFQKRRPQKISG
Briefly: PD-seq (MBP pull-down with sequencing); 20 mM Tris-HCl pH 7.5, 100 mM NaCl, 1.5 mM MgCl2, 0.4 uM protein, 0.1 uM dsDNA library, 30 min, room temperature, amylose pull-down; high values mean tight binding. The settings on record: protein: recombinant; tags: His6-MBP; chain copies: 2; dsDNA, one strand shown. The method, boiled down: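 Amylose resin was used to capture complexes formed during 30 min at room temperature in Tris pH 7.5 buffer with NaCl and MgCl2 between 0.4 µM His6-MBP-tagged mouse FoxP3 or FoxP1 fragment lacking the N-terminus, expressed in E. coli, and 0.1 µM Klenow-filled double-stranded degenerate DNA library. After three washes, the DNA was released with proteinase K, barcoded by PCR and sequenced on Illumina. Binding is pooled-replicate reads-per-million enrichment, pull-down over input.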
For the sequence “GATGATTGTTCTCCCAGCTGATGAATTCTACCGCTCGAGTAAACAAATTTTCCTAATCTTTCTGTTCAAGCGCCATCTAC”, the binding signal is 0.79 RPM ratio (pull-down/input).
For “GATGATTGTTCTCCCAGCTGATGAATTGGTTTACTCGAGTAAACAAATTTTCCTAATCTTTCTGTTCAAGCGCCATCTAC”, the binding signal was 1.24 RPM ratio (pull-down/input).
The figure for “GATGATTGTTCTCCCAGCTGATGAATTCTGGGAATCGAGTAAACAAATTTTCCTAATCTTTCTGTTCAAGCGCCATCTAC” is 0.916 RPM ratio (pull-down/input); for “GATGATTGTTCTCCCAGCTGATGAATTTGCGATATCGAGTAAACAAATTTTCCTAATCTTTCTGTTCAAGCGCCATCTAC” it is 1.19 RPM ratio (pull-down/input).
The figure for “GATGATTGTTCTCCCAGCTGATGAATTCGATCTATCGAGTAAACAAATTTTCCTAATCTTTCTGTTCAAGCGCCATCTAC” is 0.885 RPM ratio (pull-down/input).
Regarding “GATGATTGTTCTCCCAGCTGATGAATTGGAACACTCGAGTAAACAAATTTTCCTAATCTTTCTGTTCAAGCGCCATCTAC”, the binding signal is 0.927 RPM ratio (pull-down/input).
The figure for “GATGATTGTTCTCCCAGCTGATGAATTTGCGCTCTCGAGTAAACAAATTTTCCTAATCTTTCTGTTCAAGCGCCATCTAC” is 0.972 RPM ratio (pull-down/input); for “GATGATTGTTCTCCCAGCTGATGAATTAACTACGTCGAGTAAACAAATTTTCCTAATCTTTCTGTTCAAGCGCCATCTAC” it is 0.969 RPM ratio (pull-down/input).
With “GATGATTGTTCTCCCAGCTGATGAATTTAGCAGCTCGAGTAAACAAATTTTCCTAATCTTTCTGTTCAAGCGCCATCTAC”, the binding signal is 0.958 RPM ratio (pull-down/input).
On to “GATGATTGTTCTCCCAGCTGATGAATTATGTTAGTCGAGTAAACAAATTTTCCTAATCTTTCTGTTCAAGCGCCATCTAC”, for which the binding signal was 1.52 RPM ratio (pull-down/input).
Regarding “GATGATTGTTCTCCCAGCTGATGAATTTCTGACTTCGAGTAAACAAATTTTCCTAATCTTTCTGTTCAAGCGCCATCTAC”, the binding signal was 0.826 RPM ratio (pull-down/input).
As for “GATGATTGTTCTCCCAGCTGATGAATTGGACTGATCGAGTAAACAAATTTTCCTAATCTTTCTGTTCAAGCGCCATCTAC”, the binding signal was 0.841 RPM ratio (pull-down/input).
On to “GATGATTGTTCTCCCAGCTGATGAATTGCGACGTTCGAGTAAACAAATTTTCCTAATCTTTCTGTTCAAGCGCCATCTAC”, for which the binding signal was 1.07 RPM ratio (pull-down/input).
With “GATGATTGTTCTCCCAGCTGATGAATTTCGGTTTTCGAGTAAACAAATTTTCCTAATCTTTCTGTTCAAGCGCCATCTAC”, the binding signal is 0.83 RPM ratio (pull-down/input).
The value for “GATGATTGTTCTCCCAGCTGATGAATTTATCACATCGAGTAAACAAATTTTCCTAATCTTTCTGTTCAAGCGCCATCTAC” was 1.42 RPM ratio (pull-down/input); that for “GATGATTGTTCTCCCAGCTGATGAATTGAAACCTTCGAGTAAACAAATTTTCCTAATCTTTCTGTTCAAGCGCCATCTAC” was 0.837 RPM ratio (pull-down/input).
For the sequence “GATGATTGTTCTCCCAGCTGATGAATTTTTGACTTCGAGTAAACAAATTTTCCTAATCTTTCTGTTCAAGCGCCATCTAC”, the binding signal is 0.887 RPM ratio (pull-down/input).
Turning to “GATGATTGTTCTCCCAGCTGATGAATTGAGTATGTCGAGTAAACAAATTTTCCTAATCTTTCTGTTCAAGCGCCATCTAC”, the binding signal was 1 RPM ratio (pull-down/input).
As for “GATGATTGTTCTCCCAGCTGATGAATTGACGAACTCGAGTAAACAAATTTTCCTAATCTTTCTGTTCAAGCGCCATCTAC”, the binding signal is 1.03 RPM ratio (pull-down/input).
With “GATGATTGTTCTCCCAGCTGATGAATTTTGTAAGTCGAGTAAACAAATTTTCCTAATCTTTCTGTTCAAGCGCCATCTAC”, the binding signal is 1.02 RPM ratio (pull-down/input).
For the sequence “GATGATTGTTCTCCCAGCTGATGAATTATGGGGCTCGAGTAAACAAATTTTCCTAATCTTTCTGTTCAAGCGCCATCTAC”, the binding signal is 0.8 RPM ratio (pull-down/input).
The figure for “GATGATTGTTCTCCCAGCTGATGAATTTATGACATCGAGTAAACAAATTTTCCTAATCTTTCTGTTCAAGCGCCATCTAC” is 1.29 RPM ratio (pull-down/input); for “GATGATTGTTCTCCCAGCTGATGAATTCCATAAATCGAGTAAACAAATTTTCCTAATCTTTCTGTTCAAGCGCCATCTAC” it is 1.09 RPM ratio (pull-down/input).
Consider “GATGATTGTTCTCCCAGCTGATGAATTGCTAATATCGAGTAAACAAATTTTCCTAATCTTTCTGTTCAAGCGCCATCTAC”, for which the binding signal was 1.33 RPM ratio (pull-down/input).
For “GATGATTGTTCTCCCAGCTGATGAATTGCCGCGTTCGAGTAAACAAATTTTCCTAATCTTTCTGTTCAAGCGCCATCTAC”, the binding signal is 1.02 RPM ratio (pull-down/input).
For the sequence “GATGATTGTTCTCCCAGCTGATGAATTTCCCGGTTCGAGTAAACAAATTTTCCTAATCTTTCTGTTCAAGCGCCATCTAC”, the binding signal was 0.771 RPM ratio (pull-down/input).
Consider “GATGATTGTTCTCCCAGCTGATGAATTGTCGATGTCGAGTAAACAAATTTTCCTAATCTTTCTGTTCAAGCGCCATCTAC”, for which the binding signal was 1.05 RPM ratio (pull-down/input).
For the sequence “GATGATTGTTCTCCCAGCTGATGAATTTGGGATTTCGAGTAAACAAATTTTCCTAATCTTTCTGTTCAAGCGCCATCTAC”, the binding signal was 0.854 RPM ratio (pull-down/input).
For the sequence “GATGATTGTTCTCCCAGCTGATGAATTTAACTGATCGAGTAAACAAATTTTCCTAATCTTTCTGTTCAAGCGCCATCTAC”, the binding signal was 0.923 RPM ratio (pull-down/input).
As for “GATGATTGTTCTCCCAGCTGATGAATTGTTCGGCTCGAGTAAACAAATTTTCCTAATCTTTCTGTTCAAGCGCCATCTAC”, the binding signal was 0.929 RPM ratio (pull-down/input).
As to “GATGATTGTTCTCCCAGCTGATGAATTTTCCGGTTCGAGTAAACAAATTTTCCTAATCTTTCTGTTCAAGCGCCATCTAC”, the binding signal was 0.879 RPM ratio (pull-down/input).
In the case of “GATGATTGTTCTCCCAGCTGATGAATTGATTTAGTCGAGTAAACAAATTTTCCTAATCTTTCTGTTCAAGCGCCATCTAC”, the binding signal is 1.17 RPM ratio (pull-down/input).
Take “GATGATTGTTCTCCCAGCTGATGAATTGATCAGCTCGAGTAAACAAATTTTCCTAATCTTTCTGTTCAAGCGCCATCTAC”: the binding signal is 0.92 RPM ratio (pull-down/input).
Turning to “GATGATTGTTCTCCCAGCTGATGAATTTCATCAGTCGAGTAAACAAATTTTCCTAATCTTTCTGTTCAAGCGCCATCTAC”, the binding signal is 0.833 RPM ratio (pull-down/input).
The value for “GATGATTGTTCTCCCAGCTGATGAATTAACCCCTTCGAGTAAACAAATTTTCCTAATCTTTCTGTTCAAGCGCCATCTAC” was 0.932 RPM ratio (pull-down/input); that for “GATGATTGTTCTCCCAGCTGATGAATTCCGGAGGTCGAGTAAACAAATTTTCCTAATCTTTCTGTTCAAGCGCCATCTAC” was 0.779 RPM ratio (pull-down/input); that for “GATGATTGTTCTCCCAGCTGATGAATTCTTCTCCTCGAGTAAACAAATTTTCCTAATCTTTCTGTTCAAGCGCCATCTAC” was 0.815 RPM ratio (pull-down/input).
The figure for “GATGATTGTTCTCCCAGCTGATGAATTCCGCCAATCGAGTAAACAAATTTTCCTAATCTTTCTGTTCAAGCGCCATCTAC” is 0.869 RPM ratio (pull-down/input); for “GATGATTGTTCTCCCAGCTGATGAATTGGGCGTTTCGAGTAAACAAATTTTCCTAATCTTTCTGTTCAAGCGCCATCTAC” it is 0.864 RPM ratio (pull-down/input).
On to “GATGATTGTTCTCCCAGCTGATGAATTGCAACCATCGAGTAAACAAATTTTCCTAATCTTTCTGTTCAAGCGCCATCTAC”, for which the binding signal was 1.45 RPM ratio (pull-down/input).
